Consider 44 molecules from PMC4336329 (PLoS ONE, 2015).

Each structure is given as a SMILES string. Screen size: about 310,000 compounds; about 2,200 (0.71%) showed an effect of 50% or more. The effect is printed as a negative number. The list shows a part of the results.

Sequence of human ether-à-go-go-related gene (hERG) potassium channel (Q12809 whole entry, looked up): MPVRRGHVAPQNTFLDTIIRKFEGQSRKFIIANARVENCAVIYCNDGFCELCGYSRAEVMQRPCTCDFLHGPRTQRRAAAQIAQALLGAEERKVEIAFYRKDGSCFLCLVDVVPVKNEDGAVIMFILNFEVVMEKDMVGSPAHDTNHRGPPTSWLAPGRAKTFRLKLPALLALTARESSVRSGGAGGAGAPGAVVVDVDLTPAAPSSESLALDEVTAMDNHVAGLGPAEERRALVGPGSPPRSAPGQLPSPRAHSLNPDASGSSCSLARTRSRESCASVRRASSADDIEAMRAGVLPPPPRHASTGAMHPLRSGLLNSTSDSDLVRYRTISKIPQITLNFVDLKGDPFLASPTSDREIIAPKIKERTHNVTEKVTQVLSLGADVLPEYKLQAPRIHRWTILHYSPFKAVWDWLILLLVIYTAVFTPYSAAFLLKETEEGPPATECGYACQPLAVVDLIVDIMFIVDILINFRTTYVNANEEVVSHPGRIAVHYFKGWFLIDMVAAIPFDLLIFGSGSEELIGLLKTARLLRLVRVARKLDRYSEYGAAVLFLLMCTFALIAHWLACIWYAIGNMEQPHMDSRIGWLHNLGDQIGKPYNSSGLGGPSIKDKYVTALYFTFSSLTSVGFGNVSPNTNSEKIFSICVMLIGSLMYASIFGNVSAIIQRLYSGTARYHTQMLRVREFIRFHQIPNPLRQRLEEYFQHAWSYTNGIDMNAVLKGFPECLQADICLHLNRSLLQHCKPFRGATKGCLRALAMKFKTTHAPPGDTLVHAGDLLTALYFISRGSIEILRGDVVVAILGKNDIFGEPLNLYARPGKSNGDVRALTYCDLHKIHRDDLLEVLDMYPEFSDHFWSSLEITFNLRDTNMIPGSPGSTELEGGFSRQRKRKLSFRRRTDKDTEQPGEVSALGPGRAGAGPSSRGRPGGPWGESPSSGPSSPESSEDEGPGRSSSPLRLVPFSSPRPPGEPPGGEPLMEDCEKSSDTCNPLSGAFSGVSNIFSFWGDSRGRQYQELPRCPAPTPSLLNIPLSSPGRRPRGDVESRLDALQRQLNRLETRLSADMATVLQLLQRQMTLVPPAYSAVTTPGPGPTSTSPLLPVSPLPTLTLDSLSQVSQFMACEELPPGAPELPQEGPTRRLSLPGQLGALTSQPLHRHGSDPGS

The assay has as its target human ether-à-go-go-related gene (hERG) potassium channel (human, UniProt Q12809). In words: primary screen, population patch clamp on CHO cells stably expressing hERG.
For the molecule `Cc1ccc2[nH]c(=O)c(COC(=O)c3cccs3)cc2c1`, the “hERG current change (%, negative = inhibition) at 1uM” value is recorded as 0.844%.

Regarding `CC1Cc2ccccc2N1C(=O)COC(=O)c1ccc(Br)o1` (centres unmarked), the “hERG current change (%, negative = inhibition) at 1uM” value is reported as 14.9%.

As for `COCc1cc(C)nc(SCC(=O)Nc2ccc(N3CCOCC3)cc2)c1C#N`, the “hERG current change (%, negative = inhibition) at 1uM” value amounted to 0.339%.

Turning to `COc1ccc(C(=O)NC2CC3CCCC(C2)N3CC(C)C)cc1` (centres unmarked), the “hERG current change (%, negative = inhibition) at 1uM” value is on record as -13.5%.

As to `CCOC(=O)COc1ccc(S(=O)(=O)N2CCc3ccccc3C2)cc1`, the “hERG current change (%, negative = inhibition) at 1uM” value was 8.74%.

`O=C(NC12CC3CC(CC(C3)C1)C2)c1cccc(OC(F)F)c1`: the “hERG current change (%, negative = inhibition) at 1uM” value was -25.2%.

Regarding `CCOC(=O)c1sc2nc(C)c([N+](=O)[O-])c(COC)c2c1N`, the “hERG current change (%, negative = inhibition) at 1uM” value came to 2.43%.

Regarding `O=C(c1cccc(S(=O)(=O)N2CCN(c3ccc(F)cc3)CC2)c1)N1CCCCCCC1`, the “hERG current change (%, negative = inhibition) at 1uM” value was -23%.

Take `COc1cccc(-n2cnc3c(sc4nc(N5CCOCC5)c5c(c43)CCCC5)c2=O)c1`: the “hERG current change (%, negative = inhibition) at 1uM” value was 12.3%.

In the case of `O=C(c1cccs1)N(C(=O)c1cccs1)c1ccc(Br)cn1`, the “hERG current change (%, negative = inhibition) at 1uM” value was determined as 1.3%.

On to `CC1CN(CCc2ccccc2)C(C)C/C1=N/O` (centres unmarked), for which the “hERG current change (%, negative = inhibition) at 1uM” value was determined as 12.1%.

As to `CCOc1ccc(S(=O)(=O)Nc2ccc(F)cc2)c(C)c1C`, the “hERG current change (%, negative = inhibition) at 1uM” value was 4.33%.

`COc1ccc(C(=O)Nc2cccc(-c3ccc(N4CCOCC4)nn3)c2)cc1`: the “hERG current change (%, negative = inhibition) at 1uM” value is 0.554%.

For the molecule `C/C(Nc1ccccc1C(F)(F)F)=C1/CCOC1=O`, the “hERG current change (%, negative = inhibition) at 1uM” value was 11.7%.

Turning to `CCc1nc2oc3cc(OC)ccc3c(=O)c2c(=O)n1Cc1ccco1`, the “hERG current change (%, negative = inhibition) at 1uM” value was -11.4%.

With `Cc1ccc(CNC(=O)C2CCC(=O)N2Cc2ccccc2Cl)cc1` (centres unmarked), the “hERG current change (%, negative = inhibition) at 1uM” value came to 11.5%.

Take `COCCCNC(=S)N(CCO)Cc1cc2cc3c(cc2[nH]c1=O)OCO3`: the “hERG current change (%, negative = inhibition) at 1uM” value stood at 7.94%.

In the case of `Cc1ccc(C(=O)Nc2c(C)n(C)n(-c3ccccc3)c2=O)cc1`, the “hERG current change (%, negative = inhibition) at 1uM” value came to 4.16%.

Take `Cc1c(Cc2ccccc2)c(=O)oc2cc(OCC(=O)NCC3CCC(C(=O)O)CC3)ccc12` (centres unmarked): the “hERG current change (%, negative = inhibition) at 1uM” value turned out to be 15.7%.

Turning to `NC(=O)C1CCN(CCS(=O)(=O)c2ccc(Cl)cc2)CC1`, the “hERG current change (%, negative = inhibition) at 1uM” value is listed as 8.49%.

Turning to `CCC(C)c1ccccc1OCCCCN1CCCC1` (centres unmarked), the “hERG current change (%, negative = inhibition) at 1uM” value is given as 0.625%.

In the case of `CC12CCC(c3c(C(=O)Nc4nccs4)nn(-c4ccccc4)c31)C2(C)C` (centres unmarked), the “hERG current change (%, negative = inhibition) at 1uM” value is reported as 3.91%.

Turning to `O=C1[C@@H]2[C@H](Cc3ccc(O)cc3)N[C@]3(C(=O)Nc4ccccc43)[C@@H]2C(=O)N1c1ccc(F)cc1`, the “hERG current change (%, negative = inhibition) at 1uM” value came out at 4.46%.

As for `Cc1ccnc(NC(=O)COc2ccc(Cl)cc2)n1`, the “hERG current change (%, negative = inhibition) at 1uM” value worked out at 1.73%.

For `O=C(c1ccc(N2CCC3(CC2)OCCO3)c([N+](=O)[O-])c1)N1CCOCC1`, the “hERG current change (%, negative = inhibition) at 1uM” value was found to be 1.27%.

Consider `COc1nc(OCCNC(C)=O)nc(N(C)C)n1`, for which the “hERG current change (%, negative = inhibition) at 1uM” value was -7.2%.

In the case of `COc1ccc(Cc2nnc(SCc3c(C)noc3C)n2C2CCCCC2)cc1OC`, the “hERG current change (%, negative = inhibition) at 1uM” value turned out to be 6.99%.

As to `O=C(Nc1ccccc1C(=O)N1CCOCC1)c1ccc(F)cc1`, the “hERG current change (%, negative = inhibition) at 1uM” value worked out at 17.5%.

`O=C(N/N=C/C(Br)=C\c1ccccc1)c1n[nH]c2c1CCC2`: the “hERG current change (%, negative = inhibition) at 1uM” value is on record as 9.36%.

Turning to `Cc1ccc(S(=O)(=O)C2(C(=O)Nc3cccc(F)c3)CC2)cc1`, the “hERG current change (%, negative = inhibition) at 1uM” value amounted to 9.39%.

Regarding `CC1(C)Cc2cccc(OCC(=O)N3CCN(c4ccccc4F)CC3)c2O1`, the “hERG current change (%, negative = inhibition) at 1uM” value was determined as 0.623%.

For the molecule `COc1ccc(C(=O)OC(C)CN2CCN(C)CC2)cc1OC.Cl` (centres unmarked), the “hERG current change (%, negative = inhibition) at 1uM” value came out at 13.3%.

Regarding `O=C1CCCc2ccccc2N1Cc1ccc(Cl)cc1`, the “hERG current change (%, negative = inhibition) at 1uM” value was -2.3%.

On to `Cc1cc(C(F)(F)F)nn1CC(=O)N1CCCC1`, for which the “hERG current change (%, negative = inhibition) at 1uM” value is 0.46%.

Consider `CC1Cc2cc(S(=O)(=O)N3CCC(C(=O)N(C)Cc4ccccc4)CC3)ccc2N1C(=O)C1CC1` (centres unmarked), for which the “hERG current change (%, negative = inhibition) at 1uM” value was determined as 12.4%.

Take `COc1cc(NC(=O)c2cccs2)ccc1NC(=O)c1cc2ccccc2o1`: the “hERG current change (%, negative = inhibition) at 1uM” value was found to be 8.63%.

For the molecule `Cn1c(O)c(C=NC2CCCCCC2)c(=O)[nH]c1=S`, the “hERG current change (%, negative = inhibition) at 1uM” value was 9.9%.

For the molecule `O=C(c1cn(-c2ccccc2)nc1-c1cccnc1)N1CCCCC1`, the “hERG current change (%, negative = inhibition) at 1uM” value amounted to 2.79%.

On to `O=C(NC(=O)c1ccccc1N1CCCCC1)Nc1ccc(Br)cc1`, for which the “hERG current change (%, negative = inhibition) at 1uM” value is reported as 15.9%.

`COc1cccc2sc3ccc(C#Cc4ccc(N)cc4)cc3c(=O)c12`: the “hERG current change (%, negative = inhibition) at 1uM” value is on record as 12.9%.

Consider `O=S(=O)(Nc1cccnc1)c1cccc(C(F)(F)F)c1`, for which the “hERG current change (%, negative = inhibition) at 1uM” value was -3.93%.

Take `Cc1sc2nc(C)n(/N=C/c3ccccc3)c(=O)c2c1C`: the “hERG current change (%, negative = inhibition) at 1uM” value was -15%.

Turning to `CC1Sc2n(c3ccccc3[n+]2C)N=C1c1ccccc1.[Br-]` (centres unmarked), the “hERG current change (%, negative = inhibition) at 1uM” value is listed as -16.8%.

`Cc1ccc(C)c(S(=O)(=O)N2CCN(C(=O)c3ccc4ccccc4n3)CC2)c1`: the “hERG current change (%, negative = inhibition) at 1uM” value is listed as 8.87%.
